For 108 compounds, z-score results are on record in PubChem BioAssay AID488969 (Vanderbilt High Throughput Screening Facility, 2010).

Where “and” joins values, the source holds several entries; their conditions need not be identical. Identical values can stand only once. In all, about 110,000 compounds were measured (“z-score”: median about -0.1, highest 2% from about 2 on). The list shows a part of the results.

The target in the experiment is Metabotropic glutamate receptor 8 (Rattus norvegicus) (UniProt P70579). Kind of experiment: rat mGluR8 modulators via GIRK flux, primary screen, cell-based, thallium flux, HTS (AID 488969). The settings on record: HEK293 rat mGluR8, GIRK (G protein-gated inwardly rectifying potassium channel) thallium flux, FluoZin2; at 10 µM; stronger effect = higher value.
Chain of UniProt P70579 (P70579 whole entry, looked up): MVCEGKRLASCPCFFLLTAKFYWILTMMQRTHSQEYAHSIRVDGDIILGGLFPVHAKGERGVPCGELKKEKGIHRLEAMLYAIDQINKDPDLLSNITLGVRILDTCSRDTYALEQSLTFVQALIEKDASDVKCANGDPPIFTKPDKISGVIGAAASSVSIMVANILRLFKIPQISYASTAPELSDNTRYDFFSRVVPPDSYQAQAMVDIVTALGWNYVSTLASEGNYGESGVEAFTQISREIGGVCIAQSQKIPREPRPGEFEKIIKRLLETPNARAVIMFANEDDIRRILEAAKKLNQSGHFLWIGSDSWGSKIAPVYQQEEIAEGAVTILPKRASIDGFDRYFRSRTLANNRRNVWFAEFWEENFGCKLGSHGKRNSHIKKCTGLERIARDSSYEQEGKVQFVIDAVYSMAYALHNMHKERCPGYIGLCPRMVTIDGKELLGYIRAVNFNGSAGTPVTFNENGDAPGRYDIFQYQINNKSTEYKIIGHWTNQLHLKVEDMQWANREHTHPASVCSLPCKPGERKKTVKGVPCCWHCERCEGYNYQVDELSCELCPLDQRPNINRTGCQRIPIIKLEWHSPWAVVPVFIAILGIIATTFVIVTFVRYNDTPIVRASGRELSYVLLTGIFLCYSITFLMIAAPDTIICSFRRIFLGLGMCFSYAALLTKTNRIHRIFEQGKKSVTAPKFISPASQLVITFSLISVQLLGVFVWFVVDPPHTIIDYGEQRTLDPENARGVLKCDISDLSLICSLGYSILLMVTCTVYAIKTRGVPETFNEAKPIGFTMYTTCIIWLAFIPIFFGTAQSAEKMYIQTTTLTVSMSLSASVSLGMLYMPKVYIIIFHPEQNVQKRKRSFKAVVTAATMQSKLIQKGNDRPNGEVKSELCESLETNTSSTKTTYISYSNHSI
As to `COc1cc(C2SCC(=O)Nc3c2c(C)nn3-c2ccccc2)cc(OC)c1OC` (stereo not drawn), the z-score is -0.0801.
As for `CCC(=NCCO)c1c(O)n(-c2ccc(Cl)cc2)c(=O)[nH]c1=O`, the z-score was -0.403.
In the case of `Cn1nc(-c2ccc(OCC(=O)N3CCN(Cc4ccccc4)CC3)cc2)c2ccccc2c1=O`, the z-score is -0.22 and -0.55.
For `O=c1c2ccccc2nc(CSc2ncnc3nc[nH]c23)n1-c1ccc(Cl)c(Cl)c1`, the z-score was -0.202.
As for `CCN1C(=O)C(=Cc2cc(C)n(C3CC3)c2C)C(=O)N(CC)C1=S`, the z-score was -0.0808.
Under `CCOC(=O)c1c(N)n(CCN2CCOCC2)c2nc3ccccc3nc12` stands -0.337.
With `O=C(NCC(c1cccnc1)N1CCOCC1)Oc1ccccc1` (stereo not drawn) the figure was 0.264; with `CCCC(C)n1[nH]c(=O)c2c1NC(=O)CSC2c1ccc(OC)c(OC)c1` (stereo not drawn), -0.203.
For `CC/C(=N\Nc1cccc2ccccc12)c1c(O)[nH]c(=O)[nH]c1=O`, the z-score is -0.114.
Under `O=C(Cc1ccccc1)NC(Oc1ccccc1Cl)C(Cl)(Cl)Cl` (stereo not drawn) stands -0.0918; under `CN1C(=O)/C(=C/c2ccc(N3CCCCCC3)o2)C(=O)NC1=S`, -0.805; under `CN1CCc2nc3sc(C(=O)NC(C)(C)C)c(N)c3cc2C1`, -0.79.
As to `O=C(C1CCC(=O)N1C1CCCCC1)N1CCC2(CC1)OCCO2` (stereo not drawn), the z-score was -0.316.
With `CCc1ccc(N2C(=O)NC(=O)C(Cc3ccc(OC)cc3OC)C2=O)cc1` (stereo not drawn) the figure was -0.562; with `CCCOP(=O)(OCCC)C(NC(=O)c1ccccc1)=C(Cl)Cl`, -0.078.
The compound `N#Cc1ccccc1Cn1cc(C(=O)C2CC2)c2ccccc21` returned a z-score of 0.255.
Compound `CCCCNC(=O)c1c(N)n(Cc2ccc3c(c2)OCO3)c2nc3ccccc3nc12` had a z-score of 0.00707.
`O=c1[nH]c(=O)n(CCC2=CCCCC2)c(O)c1C=Nc1cccc(F)c1`: the z-score is -0.0602.
Under `CC(C)CCC1(CCc2ccncc2)C(=O)NC(=O)NC1=O` stands -0.237.
Turning to `O=C(COC(=O)Cc1ccccc1)NC12CC3CC(CC(C3)C1)C2`, the z-score was -0.0902.
With `Cc1cc(C)n2nc(SCC(=O)N3CCC4(CC3)OCCO4)nc2n1` the figure was 0.345; with `CN(C)C1=C(C#N)C(c2ccccc2)=NP(N(C)C)(N(C)C)=N1`, 1.36; with `Cc1ccc(NC(=O)c2cn(CCC#N)nc2-c2ccc3c(c2)OCCO3)c([N+](=O)[O-])c1`, 0.0107.
With `Cc1ccc(N2C(=O)NC(=O)/C(=C/C=C/c3ccco3)C2=O)cc1` the figure was -0.463; with `CCCC(C)C1(CC)C(=O)NC(=Nc2ccc(F)cc2)NC1=O` (stereo not drawn), -0.142.
Under `O=C(Cc1ccccc1)Oc1cccc(N2C(=O)CCC2=O)c1` stands 0.179; under `CN(C)c1cc(N)c2c(n1)CCC2` (tested in a mixture with another compound), 0.506.
With `CCC(=NCc1ccc2c(c1)OCO2)c1c(O)n(C)c(=O)n(C)c1=O`, the z-score was -0.46.
On to `CC1CCC/C=C/C2CC(O)CC2C(O)/C=C/C(=O)O1` (stereo not drawn), for which the z-score was -0.522.
Regarding `Cc1cc(C=O)c(C)n1C1CCCCC1`, the z-score was -0.0555.
With `CCc1ccc(NC(=O)C(C)OC(=O)c2c(C)nn(Cc3ccccc3)c2Cl)cc1` (stereo not drawn), the z-score is -0.0695.
As to `O=C(Cn1cnc2ccccc2c1=O)NCCC(=O)N1CCC2(CC1)OCCO2`, the z-score was determined as 0.539.
Under `Cc1cccn2c(=O)c3c(nc12)N1CCC(Cc2ccccc2)CC1C1(C3)C(=O)N(C)C(=O)N(C)C1=O` (stereo not drawn) stands -0.109.
With `CCCCCc1nc2ccccc2c(=O)n1-c1ccc(Cl)cc1[N+](=O)[O-]` the figure was -0.289.
Turning to `CN(C)C(Cc1ccc(Cl)cc1)C(=O)c1ccccc1` (stereo not drawn), the z-score was -0.222.
Take `Cn1c2ccccc2c2c(C(=O)N3CCC4(CC3)OCCO4)cn(C3CCCCC3)c(=O)c21`: the z-score was -0.338.
`CS(=O)(=O)N1CCCC(C(=O)N2CCC3(CC2)OCCO3)C1` (stereo not drawn): the z-score turned out to be 0.0109.
Under `N#Cc1ccc(Cn2cc(C(=O)c3ccco3)c3ccccc32)cc1` stands -0.561; under `O=C(Cc1ccccc1)OCn1nnc2ccccc2c1=O`, -0.2; under `CCCN(CC#CCO)CCC`, 0.103.
With `CC(C)N1C(=O)NC(=O)C2(Cc3cc([N+](=O)[O-])ccc3N(C)C2c2ccccc2)C1=O` (stereo not drawn) the figure was -0.35; with `Nc1cccc(N=Cc2c(O)n(Cc3ccc(F)cc3)c(=O)[nH]c2=O)c1`, 0.514.
For the compound `CCC(C)C12CN3CCN(CC(C)(C3)C1=O)C2` (stereo not drawn), the z-score is -0.0708.
Regarding `Cc1cc(C=C2C(=O)N(C)C(=S)N(C)C2=O)c(C)n1C1CCCC1`, the z-score was -0.175.
`O=c1cccc2n1CC1CC2CN(C(c2cccc(F)c2)c2sc3ncnn3c2O)C1` (stereo not drawn): the z-score is -0.481.
Under `CCOC(=O)C1CN(C)CCC1=O` (stereo not drawn) stands 0.538.
In turn, `Cc1ccc(-n2c(C)cc(/C=C3/C(=O)NC(=O)N(Cc4ccco4)C3=O)c2C)cc1` gave a z-score of 0.147.
Turning to `CN1CCC(N(C)c2nc(-c3ccccc3)nc3ccccc23)CC1`, the z-score was 0.199.
`O=C1C2CCCN2C(c2ccc(Cl)cc2)N1c1ccccn1` (stereo not drawn) gave a z-score of 2.77.
Take `CN1CCN(Cc2ccc(OC(F)(F)F)cc2)CC1`: the z-score was -0.0428.
`Cc1cccc(N2C(=O)NC(=O)/C(=C\c3cccn3-c3ccc(Cl)cc3)C2=O)c1`: the z-score was -0.0172.
With `Cc1cccc(-n2c(/C=C/c3ccc([N+](=O)[O-])o3)nc3ccccc3c2=O)c1` the figure was -0.323; with `CN(C)C(=O)Oc1ccc(-c2nnco2)cc1`, 0.238; with `CC(O)(CS(=O)(=O)c1cccc(C(F)(F)F)c1)C(=O)Nc1ccc(C(F)(F)F)cc1` (stereo not drawn), 0.252.
Under `COc1ccc(C2C([N+](=O)[O-])=C(N)Oc3c2c(=O)oc2ccccc32)cc1` (stereo not drawn) stands -0.321.
Under `O=C1C2CCN(CC2)C1Cc1ccccc1O` (stereo not drawn) stands -0.0121; under `CC(C)C1(C)N=C(c2ncccc2C(=O)O)NC1=O` (stereo not drawn), -0.149.
Consider `O=C(CN1CCCCC1)c1ccc(OC(F)F)cc1`, for which the z-score stood at 0.0855.
Under `C=CCN1C(=O)/C(=C/c2ccc(N3CCOCC3)o2)C(=O)NC1=S` stands -0.391; under `O=C(C1CC(=O)N(C2CCCCC2)C1)N1CCC2(CC1)OCCO2` (stereo not drawn), -0.448.
Under `COc1ccc(CCNCc2ccncc2)cc1` stands 0.0405; under `C=CCn1c(O)c(C=Nc2ccc(OC)cc2C)c(=O)[nH]c1=O`, -0.579; under `COc1ccccc1-n1c(O)c(C=NCCN2CCNCC2)c(=O)[nH]c1=O`, 0.531.
With `COc1ccc(CCn2c(O)c(C=NCCCN(C)C)c(=O)[nH]c2=O)cc1OC` the figure was 0.11; with `CCCNS(=O)(=O)c1ccc(OCC(=O)N2CCN(Cc3ccccc3)CC2)cc1`, -0.226; with `O=C1NC(=O)N(Cc2ccccc2Cl)C(=O)/C1=C/N1CCOCC1`, -0.529.
Take `NCC(CC(=O)O)C1CCCCC1` (stereo not drawn): the z-score was -0.206.
Under `O=c1[nH]c(=O)n(-c2cccc3ccccc23)c(O)c1C=NCCCn1ccnc1` stands 0.105.
With `N#Cc1c(/N=C/c2ccc(O)cc2O)sc2c1C1CCN2CC1`, the z-score is -0.499.
Consider `O=C(CCC(=O)N1CCC2(CC1)OCCO2)Nc1nnc(C(F)(F)F)s1`, for which the z-score amounted to 0.567.
As to `CC(C)(C)c1nc(NCc2ccc3c(c2)OCO3)c2nnn(Cc3ccccc3Cl)c2n1`, the z-score is -0.271.
With `COc1ccc(N2C(=O)CC(=O)NC2=O)cc1` the figure was 0.662; with `COc1ccc2c(c1OC)C(=O)OC2c1c(O)n(C2CCCCC2)c(=O)[nH]c1=O` (stereo not drawn), -0.0412.
In the case of `CCOc1ccc(Cc2c(O)[nH]c(=O)[nH]c2=O)cc1`, the z-score turned out to be 0.236.
Under `CN(C)CCN=Cc1c(O)n(-c2cccc3ccccc23)c(=O)[nH]c1=O` stands 0.131; under `C=CCOC(=O)C1=C(C)OC(N)=C(C#N)C12C(=O)N(CN1CCOCC1)c1ccccc12` (stereo not drawn), 0.229.
For `CCOP(=O)(OCC)C(NC(=O)c1cccc2ccccc12)C(Cl)(Cl)Cl` (stereo not drawn), the z-score is -0.135.
Regarding `OC(C#CCN1CCOCC1)(c1ccccc1)C1CCCC1` (stereo not drawn), the z-score amounted to 0.256.
With `O=C(c1cc2nc(-c3ccccc3)cc(-c3ccccc3)n2n1)N1CCC2(CC1)OCCO2` the figure was -0.525; with `O=C(c1cc(S(=O)(=O)N2CCCCC2)ccc1F)N1CCC2(CC1)OCCO2`, -0.0595; with `CCn1c(O)c(C=NCCc2c[nH]c3ccccc23)c(=O)[nH]c1=O`, -0.11.
`COC(=O)c1cc2c(s1)=NC=NP=2(N1CCOCC1)N1CCOCC1`: the z-score is -0.0368.
Consider `CCC(=NCc1ccco1)c1c(O)n(-c2ccccc2)c(=O)[nH]c1=O`, for which the z-score stood at 0.931.
For `CCN1c2nc3ccccn3c(=O)c2CC2(C(=O)N(C)C(=O)N(C)C2=O)C1C` (stereo not drawn), the z-score was -0.132.
With `CN(C)C1=NP(N(C)C)(N(C)C)=NC(c2ccccc2)=N1` the figure was -0.205; with `COc1cc2[nH]c(=O)n(-c3cccc(Cl)c3)c(=O)c2cc1OC`, -0.0317.
With `C=C1N2CCC(CC2)C1(O)c1ccc(C)c(C)c1` (stereo not drawn) the figure was -0.222.
For `CCc1ccccc1N1C(=O)NC(=O)/C(=C\c2cc(C)n(C)c2C)C1=O`, the z-score is -0.0589.
With `COc1cc2[nH]c(=O)n(-c3ccc(C)cc3)c(=O)c2cc1OC` the figure was 0.336.
Compound `O=C(C1CC(c2ccc(Cl)c(Cl)c2)=NO1)N1CCC2(CC1)OCCO2` (stereo not drawn) yielded a z-score of 0.509.
Under `O=C(c1csc2c1CCCCC2)N1CCC2(CC1)OCCO2` stands -0.477; under `O=C(C1CCCN(c2nnc(-n3cccc3)s2)C1)N1CCC2(CC1)OCCO2` (stereo not drawn), 0.546; under `O=C1NC(=O)N(Cc2ccccc2)C(=O)/C1=C\N1CCCc2ccccc21`, -0.564.
As to `CC(C)OP(=O)(OC(C)C)C(O)c1ccc(Br)cc1` (stereo not drawn), the z-score is -0.199.
With `O=c1[nH]c(=O)n(Cc2ccc(F)cc2)c(O)c1C=NCCCN1CCOCC1` the figure was -0.214.
Under `OC(c1ccc(F)cc1)C(c1ccccc1)N1CCOCC1` (stereo not drawn) stands -0.185; under `Cn1cc(C(=O)Cc2ccccc2)c2ccccc21`, 0.166.
With `O=C1NC(=O)C(CCc2ccncc2)(c2ccccc2)C(=O)N1` the figure was -0.000398; with `CCOc1cccc(N2C(=O)CC(=O)NC2=O)c1`, 0.173.
As to `CCSc1nnc([C@@H](N)Cc2ccccc2)o1`, the z-score was -0.177.
As for `O=C(C1CC(=O)N(C2CCCCCCC2)C1)N1CCC2(CC1)OCCO2` (stereo not drawn), the z-score was found to be 0.00735.
With `Cc1ccc(C2SCC(=O)Nc3c2c(=O)[nH]n3C2CCOC(C)(C)C2)cc1` (stereo not drawn) the figure was 0.0997; with `CCN1CCC2(CC1)NC(CO)(CO)CO2`, -0.359.
With `COc1ccc(CCNCc2ccc(OC)c(OC)c2OC)cc1` the figure was 1.08.
The compound `C=CCn1c(O)c(C(C)=NCCCN2CCOCC2)c(=O)[nH]c1=O` came in with a z-score of 0.131.
For the compound `O=C(Nc1ccc(Cl)cc1C(=O)c1ccccc1)c1ccccc1`, the z-score is -0.198.
Under `O=C(C(Cc1ccccc1)NS(=O)(=O)c1ccc(F)cc1)N1CCC2(CC1)OCCO2` (stereo not drawn) stands -0.216; under `COCCCNC(=O)c1c(NC(=O)c2ccco2)n(Cc2ccccc2)c2nc3ccccc3nc12`, -1.51.
